The source of these data is PubChem BioAssay AID1508623 (National Center for Advancing Translational Sciences (NCATS), 2021).

Structures are written as SMILES. Hit rate of the full screen: of about 48,000 compounds, about 450 (0.94%) were called active. About 19% were inconclusive and are not listed. Calls come from the whole dose curve; as a rule, active = well fitted inhibition curve with a large enough effect; inconclusive = small, poorly fitted or top-dose-only effect; inactive = no such curve, though single readings can be large or run the other way. Some of the results follow.

The assay can be described thus: Primary qHTS for Identification of Small Molecule Inhibitors of Huntingtin Promoter Activity. Note: nearly all actives have a fitted effect of over 50% in size. Conditions: HEK293 HTT promoter firefly luciferase reporter (activity 0% = vehicle and -100% = no light), 24 h; series mostly up to 57.5 µM; activity change, negative = inhibition: at the top concentration. In short, it runs like this: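 HEK293 cells carrying firefly luciferase reporters were seeded at 2,500 per well in Opti-MEM and cultured for 24 h. They were then treated with compounds at up to 57.5 uM final for 24 h at 37 degrees C before Dual-Glo luminescence readout.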
For orientation: qHTS replaces the single test concentration by a dilution series.
Consider `CCc1ccccc1NC(=O)Cn1nnc(-c2nc(-c3ccncc3)no2)c1N`, for which the “activity change, negative = inhibition” value is inactive: -0.531%. Regarding `COc1cc(NS(=O)(=O)c2ccc3c(c2)CC(=O)N3)cc(OC)c1OC`, the “activity change, negative = inhibition” value was inactive: -28.6%. On to `Cc1ccc(NC(=O)C2CCN(S(=O)(=O)c3ccc4c(c3)CCCC(=O)N4)CC2)c(Cl)c1`, for which the “activity change, negative = inhibition” value was inactive: -35.3%. On to `O=C(NCc1ccccc1Cl)c1ccc2c(c1)nnn2C1CCCC1`, for which the “activity change, negative = inhibition” value is inactive: 37.9%. Next, `O=C(NC1(C(F)(F)F)C(=O)Nc2c1c(=O)[nH]c(=O)n2CCc1ccccc1)c1ccc(Cl)cc1` (stereo not drawn): inactive: -13.7%; `CCCCC(=O)Nc1ccc2nc(SCC(=O)N3CCOCC3)sc2c1`: inactive: -12.9%. `CCOc1ccc(NC(=O)CN2CCN(CC(=O)Nc3ccc(N(CC)CC)cc3)CC2)cc1`: the “activity change, negative = inhibition” value was inactive: -21.6%. `COc1cc(NS(=O)(=O)c2ccc3[nH]c(=O)[nH]c3c2)cc(OC)c1`: the “activity change, negative = inhibition” value is inactive: -11.5%. The same measure for `Cc1ccc(NC(=O)c2c(C)oc3ncn(C)c(=O)c23)cc1F`: inactive: -18.1%; for `O=C(CCCc1ccccc1)NC1CC(=O)N(c2ccc(Cl)cc2)C1` (stereo not drawn): inactive: -3.54%; for `Cc1ccc(OCC(=O)Nc2nnc(SCc3cc(=O)c4ccccc4[nH]3)s2)cc1C`: inactive: 6.92%.

Consider `COc1ccccc1C(=O)n1nc(-c2cccnc2)nc1NCc1ccccc1`, for which the “activity change, negative = inhibition” value is inactive: -13.2%. Next, `Cc1cccc(-c2nc3c4ccccc4nc(N4CCN(c5ccc(F)cc5)CC4)n3n2)c1`: inactive: -8.89%; `COc1ccc(NC(=O)c2coc(=O)c3ccccc23)cc1OC`: inactive: 50.3% [at 11.5 µM]. In the case of `O=C(CCn1c(=O)c2sccc2n(Cc2ccccc2F)c1=O)NCc1ccc2c(c1)OCO2`, the “activity change, negative = inhibition” value is inactive: -3.93%. The same measure for `CCOc1ccc(-n2cc(-c3ccccc3)c3c(NCCc4ccccc4)ncnc32)cc1`: inactive: -30%. The same measure for `Cc1cccc(NC(=O)Cn2nc(-c3ccccc3)c3cnc4ccccc4c32)c1`: inactive: -32%; for `CCc1cccc(NC(=O)CCn2c(=O)c3cccn3c3cccnc32)c1`: inactive: -1.27%; for `CCOC(=O)N1CCc2c(sc3c2c(=O)n(Cc2ccccc2)c(=O)n3CC(=O)Nc2cccc(CC)c2)C1`: inactive: -12%. Next, `O=C(CCNS(=O)(=O)c1ccc2c(c1)CCCC(=O)N2)Nc1cccc(Cl)c1`: inactive: -7.7%; `O=C(NCCc1ccccc1)c1ccc(CS(=O)Cc2ccc(Cl)cc2)o1` (stereo not drawn): inactive: -1.19%. On to `COc1ccc(C(=O)c2c(N)c(-c3nc(-c4ccc5c(c4)OCO5)cs3)c3ccccn23)cc1`, for which the “activity change, negative = inhibition” value is inactive: -0.301%. In the case of `COC(=O)Cn1c(C2CC(=O)N(c3c(C)cccc3C)C2)nc2ccccc21` (stereo not drawn), the “activity change, negative = inhibition” value was inactive: -6.77%. The same measure for `O=C(Nc1ccc(F)cc1F)C1CCN(c2ncccn2)CC1`: inactive: -5.71%. Next, `O=S(=O)(c1ccc(C2CCCCC2)cc1)N1CCN(c2ccc(Cl)c(Cl)c2)CC1`: inactive: -9.63%; `Cc1ccccc1NC(=O)Cn1cc(C(=O)c2ccco2)c2ccccc21`: inactive: -23.9%; `Cc1ccc(C)c(N2CCN(c3ncnc4c3nc3n4CCCC3)CC2)c1`: inactive: -14.5%. In the case of `Cc1cccc(Cn2cc(S(=O)(=O)c3cccc(Cl)c3)c(=O)c3cc(F)c(N4CCOCC4)cc32)c1`, the “activity change, negative = inhibition” value is inactive: -5.35%. Next, `O=C1c2ccccc2C(=O)C1c1ccc(Br)cc1`: inactive: 10.8%; `CCOC(=O)c1c(C)[nH]c(C)c1S(=O)(=O)N(C)CC(=O)Nc1ccc(OC)cc1`: inactive: -11.2%. Take `Cn1c(=O)c2nc(SCC(=O)Nc3ccc(OC(F)(F)F)cc3)n(C)c2n(C)c1=O`: the “activity change, negative = inhibition” value was inactive: -1.19%. The same measure for `COc1cc(C(CC(=O)Nc2ccc(C)c(F)c2)N2Cc3ccccc3C2=O)cc(OC)c1OC` (stereo not drawn): inactive: 1.11%. Next, `COc1ccc(-c2nc(CNC(=O)NC3CCCCC3)c(C)o2)cc1`: inactive: 0%; `CCN(CC)c1ncnc2c1cnn2-c1cc(Cl)ccc1C`: inactive: -15.7%; `O=C1OCC2=C1C(c1cccc(Cl)c1)CC(=O)N2c1ccc(C(F)(F)F)cc1` (stereo not drawn): inactive: -16.2%.

For `CCOc1ccccc1NC(=O)C1CCN(S(=O)(=O)c2c(C)noc2/C=C/c2ccco2)CC1`, the “activity change, negative = inhibition” value is inactive: -16%. Next, `COc1ccc(OC)c(CNC(=O)c2ccc(N3Cc4ccccc4Oc4ncccc43)s2)c1`: inactive: -27.1%; `O=C(CCn1c(=O)c2ccccc2n(CC(=O)Nc2cccc(F)c2)c1=O)NCCc1ccccc1`: inactive: -8.55%; `CCn1c(-c2nonc2N)nc2c(C#CC(C)(C)O)ncc(OC[C@H]3CCCNC3)c21`: inactive: -19.5%.

For the compound `Cc1noc(-c2ccc(-c3noc(-c4ccc(F)cc4)n3)cc2)n1`, the activity change, negative = inhibition was inactive: -12.6% [at 11.5 µM]. The same measure for `CCOC(=O)c1cccc(NC(=O)CCSCCc2ccccn2)c1`: inactive: -11.2%.

Turning to `Cc1ccc(NC(=O)Cn2nc(-c3ccccc3)nc(Cc3ccc(Cl)cc3)c2=O)cc1`, the “activity change, negative = inhibition” value was inactive: -15.4%. Next, `COc1cc(C2Nc3ccccc3-c3cc(C)nn32)ccc1O` (stereo not drawn): inactive: -12.1%; `COCCn1c(SCC(=O)Nc2cc(Cl)ccc2OC)nc2c([nH]c3ccccc32)c1=O`: inactive: -18.5%; `COc1ccc(CNC(=O)CCNS(=O)(=O)c2ccc3c(c2)oc(=O)n3C)cc1`: inactive: -9.45%. `CC1(C)O[C@H]2C[C@@H]3[C@H]4CCC5=CC(=O)C=C[C@]5(C)[C@@]4(F)[C@@H](O)C[C@]3(C)[C@]2(C(=O)CO)O1`: the “activity change, negative = inhibition” value was inactive: -6.83%. Next, `Cc1ccccc1C(=O)Nc1cc(C)c(O)c(-c2nc3ccccc3o2)c1`: inactive: -10.3%; `Cc1cc2c(s1)Nc1ccccc1N=C2N1CCN(C)CC1`: “inactive”.
